Experimental data taken from PubChem BioAssay AID504332 (National Center for Advancing Translational Sciences (NCATS), 2011).
Out of some 350,000 compounds screened, about 31,000 (8.9%) were called active. Inconclusive means that the source gave no clear call. Such entries were picked first, then a sample of the others. Calls follow the shape of the dose curve; as a rule, active = well fitted inhibition curve with a large enough effect; inconclusive = small, poorly fitted or top-dose-only effect; inactive = no such curve, though single readings can be large or run the other way. A potency beside an inconclusive call is a rough fit, not a confirmed value.

Target: Histone-lysine N-methyltransferase EHMT2 (Homo sapiens) (UniProt Q96KQ7)
Assay: qHTS Assay for Inhibitors of Histone Lysine Methyltransferase G9a; also: nearly all actives have a fitted effect of over 75% in size
Settings: G9a H3K9 monomethylation, AlphaScreen, 2 h; activity, negative = inhibition: at 59 µM (top of the series) unless noted
In short: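 AlphaScreen detection with an anti-monomethyl H3K9 antibody quantified product after a 2 h room-temperature reaction containing 500 nM biotinylated H3K9 peptide, 20 µM SAM and 20 nM enzyme, which had been preincubated 15 min with compound.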
% is scaled to controls: 0 for no effect and ±100 for the full control effect; potency is read from the fitted curve at half-maximal effect; tags tell the direction and shape of the fitted curve.

Sequence of UniProt Q96KQ7 (Q96KQ7 whole entry, looked up): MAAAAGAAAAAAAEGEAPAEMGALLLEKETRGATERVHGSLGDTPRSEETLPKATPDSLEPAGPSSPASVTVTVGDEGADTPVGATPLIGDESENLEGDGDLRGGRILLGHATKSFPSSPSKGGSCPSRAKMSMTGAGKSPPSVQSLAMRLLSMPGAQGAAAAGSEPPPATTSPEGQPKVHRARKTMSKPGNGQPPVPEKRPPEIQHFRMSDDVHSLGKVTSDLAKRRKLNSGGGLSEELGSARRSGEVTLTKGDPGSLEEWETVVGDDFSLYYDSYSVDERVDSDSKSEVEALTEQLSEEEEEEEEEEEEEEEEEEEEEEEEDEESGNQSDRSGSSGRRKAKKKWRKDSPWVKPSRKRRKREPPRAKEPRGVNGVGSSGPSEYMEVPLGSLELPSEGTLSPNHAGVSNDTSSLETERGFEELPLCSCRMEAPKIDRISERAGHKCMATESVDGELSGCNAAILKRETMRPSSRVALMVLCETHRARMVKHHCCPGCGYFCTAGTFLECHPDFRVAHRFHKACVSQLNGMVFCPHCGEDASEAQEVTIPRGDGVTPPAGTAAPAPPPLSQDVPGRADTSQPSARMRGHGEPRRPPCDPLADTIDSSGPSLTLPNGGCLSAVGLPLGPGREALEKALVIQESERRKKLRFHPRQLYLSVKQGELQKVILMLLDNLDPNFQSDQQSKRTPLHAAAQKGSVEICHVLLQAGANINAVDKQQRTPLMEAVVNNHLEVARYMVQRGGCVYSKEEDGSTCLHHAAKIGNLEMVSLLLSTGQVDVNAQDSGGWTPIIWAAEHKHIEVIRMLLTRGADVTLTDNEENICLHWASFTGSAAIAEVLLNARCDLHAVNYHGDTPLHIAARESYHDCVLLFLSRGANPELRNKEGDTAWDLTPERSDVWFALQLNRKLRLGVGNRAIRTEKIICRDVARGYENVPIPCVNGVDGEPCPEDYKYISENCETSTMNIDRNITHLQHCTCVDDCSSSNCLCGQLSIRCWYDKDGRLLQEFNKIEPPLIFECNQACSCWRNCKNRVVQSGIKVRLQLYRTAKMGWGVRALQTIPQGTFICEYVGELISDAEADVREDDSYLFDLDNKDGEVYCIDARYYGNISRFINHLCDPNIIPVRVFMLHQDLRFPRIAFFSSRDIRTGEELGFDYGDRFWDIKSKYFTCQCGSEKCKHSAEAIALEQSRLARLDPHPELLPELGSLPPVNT

Row | Structure (SMILES) | Potency | activity, negative = inhibition
1 | O=C(CN1C(=O)/C(=C/c2ccccc2F)Sc2ccccc21)N1CCN(c2ccccn2)CC1 | inconclusive: 89.1 µM [inhibitor, single point] | 
2 | COc1ccc(C(=O)COC(=O)Cn2cnc3ccccc3c2=O)c(OC)c1 | inconclusive: 89.1 µM [inhibitor, single point] | 
3 | O=C(c1ccccc1)n1nnc2ccccc21 | inactive | 
4 | CCOC(=O)C1=C(C)N=c2s/c(=C/c3cccc([N+](=O)[O-])c3O)c(=O)n2C1c1cc(OC)c(OC)c(OC)c1 (stereo unspecified) | active: 2.24 µM | 
5 | O=C(NCC1CCCO1)c1ccccc1NS(=O)(=O)c1cccs1 (stereo unspecified) | inconclusive: 79.4 µM [inhibitor, single point] | 
6 | COc1ccc(S(=O)(=O)Nc2cc(C(=O)NCCCN3CCOCC3)ccc2N2CCOCC2)cc1 | inconclusive: 89.1 µM [inhibitor, partial curve, poor fit] | 
7 | NS(=O)(=O)c1cccc(NC(=O)c2cc(-c3cccs3)nc3ccccc23)c1 | active: 44.7 µM | 
8 | Cc1[nH]n(C)c(=O)c1C(=O)c1c(-c2c(Cl)cccc2Cl)noc1C | inconclusive: 89.1 µM [inhibitor, single point] | 
9 | NC(=O)CSc1nnc(-c2cc3ccccc3o2)n1Cc1ccccc1 | inconclusive: 2.24 µM [inhibitor, partial curve, poor fit] | 
10 | Cc1cc(C(=O)OCC(=O)N2CCOCC2)c2ccccc2n1 | inactive | 
11 | COc1ccc(N=C2CC(C)(C)CC(=O)/C2=C(/O)c2ccccc2)cc1 | inactive | 
12 | COc1ccc(N=C2C(=Nc3ccc(OC)cc3)N(c3ccccc3)C(=S)N2C(=O)c2ccc(Cl)cc2)cc1 | active: 7.08 µM | 
13 | O=C(NCC(O)c1ccccc1)c1ccc(Cl)c(S(=O)(=O)N2CCCCC2)c1 (stereo unspecified) | inactive | 
14 | COc1cc(C(=O)NCCNC(=O)c2cnccn2)cc(OC)c1OC | inconclusive: 6.31 µM [inhibitor, partial curve, poor fit] | 
15 | CN1CC[C@]23c4ccccc4N[C@H]1[C@]21CCN(C)[C@H]3Nc2ccccc21 | inconclusive: 39.8 µM [inhibitor, single point] | 
16 | Cn1cc(-c2cc(C(=O)O)on2)cn1 | inconclusive: 79.4 µM [inhibitor, partial curve, poor fit] | 
17 | O=C(COc1ccc(S(=O)(=O)NC2CCCCC2)cc1)NCc1cccnc1 | inactive | 
18 | COc1ccc(C(=O)Nc2cc(C)c(NC(=O)c3ccccn3)cn2)cc1 | active: 44.7 µM | 
19 | CC1(C)Cc2c(sc(NC(=O)C(=O)N3CCOCC3)c2C#N)CO1 | active: 35.5 µM | 
20 | COc1cccc(C(=O)N/N=C/c2ccc(Oc3ccc([N+](=O)[O-])cn3)c(OC)c2)c1 | inconclusive: 39.8 µM [inhibitor, single point] | 
21 | CC(C)(C)C(=O)OCOP(=O)(OCOC(=O)C(C)(C)C)C(C)(Oc1ccc(O)cc1)P(=O)(OCOC(=O)C(C)(C)C)OCOC(=O)C(C)(C)C | active: 3.55 µM | 

Row | Structure (SMILES) | Potency | activity, negative = inhibition
22 | CC(=O)/C(=N/Nc1cccc(Cl)c1)Sc1nnc(C(O)c2ccccc2)n1-c1ccccc1 (stereo unspecified) | inconclusive: 89.1 µM [inhibitor, single point] | 
23 | CC(C)(C)c1ccc(/C=C/C(=O)Nc2cccnc2)cc1 | inactive | 
24 | Cc1cc2c(cc1S(=O)(=O)CCC(=O)NCCc1ccccc1)OCC(=O)N2 | inactive | 
25 | Cc1ccc2[nH]c(C)c(/C=N/Nc3nc4ccccc4s3)c2c1 | inconclusive: 44.7 µM [inhibitor, partial curve, poor fit] | 
26 | COc1ccc(NC(=O)CSc2nnc(C)n2C2CC2)cc1S(=O)(=O)N1CCOCC1 | inconclusive: 0.141 µM [inhibitor, full curve, poor fit] | 
27 | CCCOc1ccc(C(=O)ON=C2CCN(C)CC2)cc1 | inconclusive: 89.1 µM [inhibitor, single point] | 
28 | CCCCc1ccc(CC2S/C(=C(\C#N)C(=O)N3CCOCC3)N(c3ccccc3)C2=O)cc1 (stereo unspecified) | inconclusive: 39.8 µM [inhibitor, single point] | 
29 | Cc1nnc(N2CCC(C(=O)NCCc3ccccc3)CC2)c2nn(-c3ccc(Cl)cc3)c(C)c12 | inconclusive: 6.31 µM [inhibitor, partial curve, poor fit] | 
30 | Cc1cccc(N2CC(C(=O)OCC(=O)c3c(N)n(CC(C)C)c(=O)n(C)c3=O)CC2=O)c1C (stereo unspecified) | inconclusive: 56.2 µM [inhibitor, partial curve, poor fit] | 
31 | CCOC(=O)CSc1nc(C)c2cc(C)c(C)cc2n1 | inconclusive: 89.1 µM [inhibitor, partial curve, poor fit] | 
32 | O=C(NNc1ccccc1)C(=O)NNS(=O)(=O)c1ccc(CCCl)cc1 | active: 44.7 µM | 
33 | COc1ccc(/C=C2\SC(=O)N(CC(=O)Nc3cccnc3)C2=O)cc1OC | inconclusive: 14.1 µM [inhibitor, full curve, poor fit] | 
34 | COc1ccc(-c2csc3ncnc(N4CCN(c5cccc(Cl)c5)CC4)c23)cc1 | inconclusive: 89.1 µM [inhibitor, single point] | 
35 | CCOC(=O)c1c(C)[nH]c(C)c1S(=O)(=O)NCC1CCN(Cc2ccccc2F)CC1 | inconclusive: 3.98 µM [inhibitor, partial curve, poor fit] | 
36 | COc1ccc(C(=O)CSc2nnc3n2CCCN3C(=O)Nc2ccccc2)cc1 | inactive | 
37 | CCOC(=O)c1c(C)n(-c2ccc(OC)cc2)c2ccc(O)c(CN(C)C)c12 | inconclusive: 39.8 µM [inhibitor, single point] | 
38 | Cc1ccc(S(=O)(=O)Nc2cc(Cl)c(O)c3ncccc23)cc1 | active: 7.94 µM | 
39 | Cc1ccc(CCNC(=O)CCS(=O)(=O)c2cc3c(cc2C)NC(=O)CO3)cc1 | inconclusive: 12.6 µM [inhibitor, partial curve, poor fit] | 
40 | CC1(C)Cc2c(c(-c3ccco3)[nH]c(=O)c2C#N)CS1 |  | inconclusive: -86.8% [inhibitor]
41 | O=C(CCN1C(=O)S/C(=C\c2ccc(F)cc2)C1=O)Nc1ccc(C(=O)O)c(O)c1 | inconclusive: 89.1 µM [inhibitor, single point] | 
